# According to patent US7816326B2, “Sulfur compounds as inhibitors of hepatitis C virus NS3 serine protease” (Schering Corporation, priority 2004, dated 2010):
# Like-named read-outs stand apart in the source and are kept apart here.
# Molecular target: Recombinant heterodimeric HCV NS3/NS4A protease (strain 1a) (Hepatitis C virus genotype 1a, UniProt P27958)
# Assay: Spectrophotometric assay for HCV protease inhibitory activity
# Type: biochemical
# [1] = HCV serine protease inhibitory activity ranges, read-out: Ki* Range
# [2] = HCV NS3/NS4A protease, chromogenic ester substrate, 30° C., pH 6.5, read-out: Ki*
SMILES,Ki [1],Ki [2]
CCCC[C@H](NC(=O)[C@@H]1[C@@H]2[C@H](CN1C(=O)[C@@H](NC(=O)NC1(CS(=O)(=O)N3CCOCC3)CCCCC1)C(C)(C)C)C2(C)C)C(=O)C(=O)NC1CC1 [compound 1382],< 0.075 µM,
CCCC[C@H](NC(=O)[C@@H]1[C@@H]2[C@H](CN1C(=O)[C@@H](NC(=O)NC1(CS(=O)(=O)N(C)C3CCC3)CCCCC1)C(C)(C)C)C2(C)C)C(=O)C(=O)NC1CC1 [compound 1383],< 0.075 µM,
CC(C)(C)[C@H](NC(=O)NC1(CS(=O)(=O)N2CCOCC2)CCCCC1)C(=O)N1C[C@H]2[C@@H]([C@H]1C(=O)N[C@@H](CCC1CC1)C(=O)C(=O)NC1CC1)C2(C)C [compound 1384],< 0.075 µM,
CN(C1CCC1)S(=O)(=O)CC1(NC(=O)N[C@H](C(=O)N2C[C@H]3[C@@H]([C@H]2C(=O)N[C@@H](CCC2CC2)C(=O)C(=O)NC2CC2)C3(C)C)C(C)(C)C)CCCCC1 [compound 1385],< 0.075 µM,
CCC[C@H](NC(=O)[C@@H]1[C@@H]2[C@H](CN1C(=O)[C@@H](NC(=O)NC1(CS(=O)(=O)N3CCOCC3)CCCCC1)C(C)(C)C)C2(C)C)C(=O)C(=O)NC1CC1 [compound 1386],< 0.075 µM,
CC(C)(C)[C@H](NC(=O)NC1(CS(=O)(=O)N2CCOCC2)CCCCC1)C(=O)N1C[C@H]2[C@@H]([C@H]1C(=O)N[C@@H](CC1CC1)C(=O)C(=O)NC1CC1)C2(C)C [compound 1387],< 0.075 µM,
CCC[C@H](NC(=O)[C@@H]1[C@@H]2[C@H](CN1C(=O)[C@@H](NC(=O)NC1(CS(=O)(=O)N(C)C3CCC3)CCCCC1)C1(C)CCCCC1)C2(C)C)C(=O)C(=O)NC1CC1 [compound 1388],< 0.075 µM,
CN(C1CCC1)S(=O)(=O)CC1(NC(=O)N[C@H](C(=O)N2C[C@H]3[C@@H]([C@H]2C(=O)N[C@@H](CC2CC2)C(=O)C(=O)NC2CC2)C3(C)C)C2(C)CCCCC2)CCCCC1 [compound 1389],< 0.075 µM,
CCCC[C@H](NC(=O)[C@@H]1[C@@H]2[C@H](CN1C(=O)[C@@H](NC(=O)NC1(CS(=O)(=O)N(C)C3CCC3)CCCCC1)C1(C)CCCCC1)C2(C)C)C(=O)C(=O)NC1CC1 [compound 1390],< 0.075 µM,
CN(C1CCC1)S(=O)(=O)CC1(NC(=O)N[C@H](C(=O)N2C[C@H]3[C@@H]([C@H]2C(=O)N[C@@H](CCC2CC2)C(=O)C(=O)NC2CC2)C3(C)C)C2(C)CCCCC2)CCCCC1 [compound 1391],< 0.075 µM,
CCC[C@H](NC(=O)[C@@H]1[C@@H]2[C@H](CN1C(=O)[C@@H](NC(=O)NC1(CS(=O)(=O)N(C)c3ccccn3)CCCCC1)C(C)(C)C)C2(C)C)C(=O)C(=O)NC1CC1 [compound 1392],< 0.075 µM,
CCC[C@@H](NC(=O)[C@@H]1[C@@H]2[C@H](CN1C(=O)[C@@H](NC(=O)NC1(CS(=O)(=O)N(C)c3ccccn3)CCCCC1)C(C)(C)C)C2(C)C)C(=O)C(=O)NC1CC1 [compound 1393],< 0.075 µM,
CCCC[C@H](NC(=O)[C@@H]1[C@@H]2[C@H](CN1C(=O)[C@@H](NC(=O)NC1(CS(=O)(=O)N(C)c3ccccn3)CCCCC1)C(C)(C)C)C2(C)C)C(=O)C(=O)NC1CC1 [compound 1394],< 0.075 µM,
CN(c1ccccn1)S(=O)(=O)CC1(NC(=O)N[C@H](C(=O)N2C[C@H]3[C@@H]([C@H]2C(=O)N[C@@H](CC2CC2)C(=O)C(=O)NC2CC2)C3(C)C)C(C)(C)C)CCCCC1 [compound 1395],< 0.075 µM,
CN(c1ccccn1)S(=O)(=O)CC1(NC(=O)N[C@H](C(=O)N2C[C@H]3[C@@H]([C@H]2C(=O)N[C@H](CC2CC2)C(=O)C(=O)NC2CC2)C3(C)C)C(C)(C)C)CCCCC1 [compound 1396],< 0.075 µM,
CCCC[C@H](NC(=O)[C@@H]1[C@@H]2[C@H](CN1C(=O)[C@@H](NC(=O)NC1([C@@H](C)S(=O)(=O)N(C)C)CCCCC1)C(C)(C)C)C2(C)C)C(=O)C(=O)NC1CC1 [compound 1397],< 0.075 µM,0.002 µM

SMILES,Ki [1],Ki [2]
C[C@H](C1(NC(=O)N[C@H](C(=O)N2C[C@H]3[C@@H]([C@H]2C(=O)N[C@@H](CCC2CC2)C(=O)C(=O)NC2CC2)C3(C)C)C(C)(C)C)CCCCC1)S(=O)(=O)N(C)C [compound 1398],< 0.075 µM,
CCC[C@H](NC(=O)[C@@H]1[C@@H]2[C@H](CN1C(=O)[C@@H](NC(=O)NC1([C@@H](C)S(=O)(=O)N(C)C)CCCCC1)C(C)(C)C)C2(C)C)C(=O)C(=O)NC1CC1 [compound 1399],< 0.075 µM,
C[C@H](C1(NC(=O)N[C@H](C(=O)N2C[C@H]3[C@@H]([C@H]2C(=O)N[C@@H](CC2CC2)C(=O)C(=O)NC2CC2)C3(C)C)C(C)(C)C)CCCCC1)S(=O)(=O)N(C)C [compound 1400],< 0.075 µM,
CCCC[C@H](NC(=O)[C@@H]1[C@@H]2[C@H](CN1C(=O)[C@@H](NC(=O)NC1([C@H](C)S(=O)(=O)N(C)C)CCCCC1)C(C)(C)C)C2(C)C)C(=O)C(=O)NC1CC1 [compound 1401],< 0.075 µM,
C[C@@H](C1(NC(=O)N[C@H](C(=O)N2C[C@H]3[C@@H]([C@H]2C(=O)N[C@@H](CCC2CC2)C(=O)C(=O)NC2CC2)C3(C)C)C(C)(C)C)CCCCC1)S(=O)(=O)N(C)C [compound 1402],< 0.075 µM,
CCC[C@H](NC(=O)[C@@H]1[C@@H]2[C@H](CN1C(=O)[C@@H](NC(=O)NC1([C@H](C)S(=O)(=O)N(C)C)CCCCC1)C(C)(C)C)C2(C)C)C(=O)C(=O)NC1CC1 [compound 1403],< 0.075 µM,
C[C@@H](C1(NC(=O)N[C@H](C(=O)N2C[C@H]3[C@@H]([C@H]2C(=O)N[C@@H](CC2CC2)C(=O)C(=O)NC2CC2)C3(C)C)C(C)(C)C)CCCCC1)S(=O)(=O)N(C)C [compound 1404],< 0.075 µM,
CCC[C@H](NC(=O)[C@@H]1[C@@H]2[C@H](CN1C(=O)[C@@H](NC(=O)NC1(CS(=O)(=O)N3CC(F)(F)C3)CCCCC1)C(C)(C)C)C2(C)C)C(=O)C(=O)NC1CC1 [compound 1405],< 0.075 µM,
CCCC[C@H](NC(=O)[C@@H]1[C@@H]2[C@H](CN1C(=O)[C@@H](NC(=O)NC1(CS(=O)(=O)N3CC(F)(F)C3)CCCCC1)C(C)(C)C)C2(C)C)C(=O)C(=O)NC1CC1 [compound 1406],< 0.075 µM,
CCCC[C@H](NC(=O)[C@@H]1[C@@H]2[C@H](CN1C(=O)[C@@H](NC(=O)NC1([C@@H](C)S(=O)(=O)N(C)C)CCCCC1)C1(C)CCCCC1)C2(C)C)C(=O)C(=O)NC1CC1 [compound 1407],< 0.075 µM,
C[C@H](C1(NC(=O)N[C@H](C(=O)N2C[C@H]3[C@@H]([C@H]2C(=O)N[C@@H](CCC2CC2)C(=O)C(=O)NC2CC2)C3(C)C)C2(C)CCCCC2)CCCCC1)S(=O)(=O)N(C)C [compound 1408],< 0.075 µM,
CCC[C@H](NC(=O)[C@@H]1[C@@H]2[C@H](CN1C(=O)[C@@H](NC(=O)NC1([C@@H](C)S(=O)(=O)N(C)C)CCCCC1)C1(C)CCCCC1)C2(C)C)C(=O)C(=O)NC1CC1 [compound 1409],< 0.075 µM,
C[C@H](C1(NC(=O)N[C@H](C(=O)N2C[C@H]3[C@@H]([C@H]2C(=O)N[C@@H](CC2CC2)C(=O)C(=O)NC2CC2)C3(C)C)C2(C)CCCCC2)CCCCC1)S(=O)(=O)N(C)C [compound 1410],< 0.075 µM,0.0012 µM
CCCC[C@H](NC(=O)[C@@H]1[C@@H]2[C@H](CN1C(=O)[C@@H](NC(=O)NC1([C@H](C)S(=O)(=O)N(C)C)CCCCC1)C1(C)CCCCC1)C2(C)C)C(=O)C(=O)NC1CC1 [compound 1411],< 0.075 µM,
C[C@@H](C1(NC(=O)N[C@H](C(=O)N2C[C@H]3[C@@H]([C@H]2C(=O)N[C@@H](CCC2CC2)C(=O)C(=O)NC2CC2)C3(C)C)C2(C)CCCCC2)CCCCC1)S(=O)(=O)N(C)C [compound 1412],< 0.075 µM,
